The other results are listed elsewhere or left out. Most values come without repeats; read them as rough.
Experiments:
Experiment in all cases: cell count relative to DMSO control; melanoma cells; higher = more viable cells
Conditions in all cases: library dose: low library concentration; 72 h
MZ2-MEL = tested on: MZ2-MEL
MeWo = tested on: MeWo
RPMI7951 = tested on: RPMI7951
RVH-421 = tested on: RVH-421
SkMel28 = tested on: SkMel28
SkMel2 = tested on: SkMel2
SkMel30 = tested on: SkMel30
UACC62 = tested on: UACC62
WM115 = tested on: WM115
WM1716 = tested on: WM1716
WM1745 = tested on: WM1745
WM3526 = tested on: WM3526
WM3619 = tested on: WM3619
WM451Lu = tested on: WM451Lu
SkMel5 = tested on: SkMel5
UACC257 = tested on: UACC257
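Also: cell number obtained by counting DAPI-stained nuclei in high-throughput microscope images with image analysis software, screen run in 1,536-well plates.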

Row | SMILES | cell count (MZ2-MEL) [%] | cell count (MeWo) [%] | cell count (RPMI7951) [%] | cell count (RVH-421) [%] | cell count (SkMel28) [%] | cell count (SkMel2) [%] | cell count (SkMel30) [%] | cell count (UACC62) [%] | cell count (WM115) [%] | cell count (WM1716) [%] | cell count (WM1745) [%] | cell count (WM3526) [%] | cell count (WM3619) [%] | cell count (WM451Lu) [%] | cell count (SkMel5) [%] | cell count (UACC257) [%]
1 | O=C(/C=C/c1cccnc1)NCCCCC1CCN(C(=O)c2ccccc2)CC1 + C[As](C)SC[C@H](NC(=O)CC[C@H](N)C(=O)O)C(=O)NCC(=O)O [Darinaparsin] (first compound 0.01 µM, partner dose 0.4 µM) | 32.9 | 96.6 | 95.3 | 51.6 | 95 | 29.3 | 93.3 | 118 | 91.2 | 93.6 | 115 | 99.5 | 123 | 98.2 |  | 
2 | CC1(C)NC(=O)N(c2ccc([N+](=O)[O-])c(C(F)(F)F)c2)C1=O [nilutamide] + C/C(O)=C(\C#N)C(=O)Nc1cc(Br)ccc1Br [LFM-A13] (first compound 1 µM, partner dose 2 µM) | 94.9 | 86 | 102 | 91.1 | 86 |  | 87.9 | 91 | 108 | 80.7 | 83.1 | 93.5 | 88.7 | 103 | 95.2 | 89.8
3 | C/C(O)=C(\C#N)C(=O)Nc1cc(Br)ccc1Br + Cc1cc([N+](=O)[O-])ccc1NS(=O)(=O)c1cc(Cl)ccc1Cl [FH535] (first compound 2 µM, partner dose 1 µM) | 87.8 | 87 | 95.1 | 84.2 | 84.9 |  | 79.7 | 81.8 | 78.6 | 88.9 | 94.8 | 90.8 | 93.3 | 99.3 | 83.3 | 78.6
4 | Cc1cc(SCc2sc(-c3ccc(C(F)(F)F)c(F)c3)nc2C)ccc1OCC(=O)O + Cc1cc([N+](=O)[O-])ccc1NS(=O)(=O)c1cc(Cl)ccc1Cl [FH535] (first compound 2 µM, partner dose 1 µM) | 95.1 | 108 | 105 | 95.1 | 89.3 |  | 115 | 99 | 86.9 | 105 | 84.5 | 109 | 101 | 112 | 93.3 | 114
5 | C[C@]1(c2nc3c(C(N)=O)cccc3[nH]2)CCCN1 [Veliparib] + O=C(Oc1ccc([N+](=O)[O-])cc1)N1CCC(C(O)(c2ccc3c(c2)OCO3)c2ccc3c(c2)OCO3)CC1 [JZL184] (first compound 1.4 µM, partner dose 1 µM) | 105 | 101 | 90.6 | 93.4 | 82 |  | 79.5 | 83.8 | 82.9 | 64.9 | 84.1 | 95.7 | 139 | 106 | 77.4 | 90.4
6 | Nc1cccc2c1CN(C1CCC(=O)NC1=O)C2=O (centres undefined) [lenalidomide] + C/C(O)=C(\C#N)C(=O)Nc1cc(Br)ccc1Br [LFM-A13] (first compound 1 µM, partner dose 2 µM) | 96.4 | 100 | 105 | 97.5 | 102 |  | 119 | 81.7 | 89.7 | 83.8 | 99.3 | 87 | 126 | 91.3 | 82.9 | 81
7 | CN(C)S(=O)(=O)c1ccc2c(c1)/C(=C/c1cc3c([nH]1)CCCC3)C(=O)N2 + O=C(Oc1ccc([N+](=O)[O-])cc1)N1CCC(C(O)(c2ccc3c(c2)OCO3)c2ccc3c(c2)OCO3)CC1 [JZL184] (first compound 0.4 µM, partner dose 1 µM) | 98.1 | 86.7 | 95.6 | 98.1 | 97.7 |  | 90.8 | 90.2 | 80.2 | 111 | 94.8 | 120 | 123 | 100 | 97.1 | 91.8
8 | Cn1cncc1[C@@](N)(c1ccc(Cl)cc1)c1ccc2c(c1)c(-c1cccc(Cl)c1)cc(=O)n2C [tipifarnib] + O=C(Oc1ccc([N+](=O)[O-])cc1)N1CCC(C(O)(c2ccc3c(c2)OCO3)c2ccc3c(c2)OCO3)CC1 [JZL184] (first compound 0.01 µM, partner dose 1 µM) | 94.3 | 96.6 | 91.8 | 88.5 | 65.8 |  | 109 | 71.5 | 74 | 64.4 | 83 | 90.5 | 115 | 72.8 | 85.7 | 80.8
9 | OCCn1cc(-c2cnc3nnn(Cc4ccc5ncccc5c4)c3n2)cn1 + O=C(Oc1ccc([N+](=O)[O-])cc1)N1CCC(C(O)(c2ccc3c(c2)OCO3)c2ccc3c(c2)OCO3)CC1 [JZL184] (first compound 1 µM, partner dose 1 µM) | 110 | 117 | 98.1 | 106 | 101 |  | 96 | 107 | 104 | 93.5 | 82.8 | 94.1 | 124 | 106 | 89.2 | 99.2

From the supplement of paper PMC4604168 (melanoma cell lines)
